# Test results taken from paper PMC4336329 (PLoS ONE, 2015).
# The campaign covered roughly 310,000 compounds. About 2,200 (0.71%) showed an effect of 50% or more. The effect is printed as a negative number. This is one part of the list.
# Biological target: human ether-à-go-go-related gene (hERG) potassium channel (human, UniProt Q12809)
# Experiment: primary screen, population patch clamp on CHO cells stably expressing hERG
# human ether-à-go-go-related gene (hERG) potassium channel, sequence (Q12809 whole entry, looked up): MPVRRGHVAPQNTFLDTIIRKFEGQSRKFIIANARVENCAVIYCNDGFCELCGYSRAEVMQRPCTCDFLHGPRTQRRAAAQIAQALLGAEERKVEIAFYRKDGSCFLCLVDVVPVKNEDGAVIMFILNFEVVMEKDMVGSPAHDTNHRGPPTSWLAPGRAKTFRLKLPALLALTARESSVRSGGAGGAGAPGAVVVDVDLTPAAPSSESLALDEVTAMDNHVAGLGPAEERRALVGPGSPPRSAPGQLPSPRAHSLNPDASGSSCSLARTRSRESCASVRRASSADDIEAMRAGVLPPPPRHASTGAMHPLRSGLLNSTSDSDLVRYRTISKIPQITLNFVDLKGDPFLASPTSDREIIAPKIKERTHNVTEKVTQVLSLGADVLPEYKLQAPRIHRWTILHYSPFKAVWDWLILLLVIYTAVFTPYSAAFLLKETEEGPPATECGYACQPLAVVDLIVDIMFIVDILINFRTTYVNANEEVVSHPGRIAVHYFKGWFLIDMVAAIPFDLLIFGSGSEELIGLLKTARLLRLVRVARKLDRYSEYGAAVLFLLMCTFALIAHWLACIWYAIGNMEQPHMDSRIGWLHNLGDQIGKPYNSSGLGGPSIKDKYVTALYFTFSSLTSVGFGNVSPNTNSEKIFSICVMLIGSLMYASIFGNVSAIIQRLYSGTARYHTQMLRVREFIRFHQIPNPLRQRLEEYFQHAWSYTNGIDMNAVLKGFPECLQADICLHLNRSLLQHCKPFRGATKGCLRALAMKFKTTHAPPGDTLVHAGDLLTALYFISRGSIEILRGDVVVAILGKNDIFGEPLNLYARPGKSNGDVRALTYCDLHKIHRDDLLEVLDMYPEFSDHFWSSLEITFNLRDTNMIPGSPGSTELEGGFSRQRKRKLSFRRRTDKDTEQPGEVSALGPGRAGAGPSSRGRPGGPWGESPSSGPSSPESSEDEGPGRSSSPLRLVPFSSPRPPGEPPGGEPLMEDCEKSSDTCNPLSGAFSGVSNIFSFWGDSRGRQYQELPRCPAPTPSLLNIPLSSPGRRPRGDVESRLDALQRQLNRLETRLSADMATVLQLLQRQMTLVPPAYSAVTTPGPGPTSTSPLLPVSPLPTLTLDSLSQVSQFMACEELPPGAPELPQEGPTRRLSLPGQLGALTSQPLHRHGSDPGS
row,Compound,"hERG current change (%, negative = inhibition) at 1uM"
1,Cc1c(C(=O)O)nnn1-c1nonc1N,15.8%
2,O=C(CN1CCOCC1)Nc1ncc(Cc2cccc(Cl)c2Cl)s1,-11.1%
3,Cc1nc2ccccc2n1S(=O)(=O)c1ccc(S(=O)(=O)N2CCCCCC2)cc1,14.6%
4,COc1cc2[nH]c3c(=O)n4c(nc3c2cc1OC)SCCC4,6.41%
5,O=C(NC1CC1)C1=C[C@@H](c2c[nH]c3ccccc23)C[C@@H](OCc2ccc(CO)cc2)O1,-9.13%
6,CN(C)c1ccc(/C=C(\C#N)C(=O)NCc2ccco2)cc1,2.53%
7,Cc1ccc(-c2nn(-c3ccccc3)cc2C(=O)N2CCN(c3ccccn3)CC2)cc1,6.15%
8,COC(=O)c1cc(Cl)c(NS(=O)(=O)c2ccccc2)cc1OC,16.7%
9,Cc1n[nH]c(C)c1CCC(=O)N/N=C/c1cccs1,15.6%
10,COc1cc(OC)cc(C(=O)Nc2c(C)nn(-c3ccccc3)c2C)c1,0.777%
11,COCCNC(=O)CCc1nc2cccnc2n1Cc1ccc(OC)cc1,12.5%
12,COc1cc(/C=C/c2[nH]c(=O)[nH]c(=O)c2[N+](=O)[O-])cc([N+](=O)[O-])c1O,16.3%
13,COc1ccc(NC(=O)C(=O)NCC2CCCN2S(=O)(=O)c2cccs2)cc1 (stereo not shown),11.4%
14,C/C(=N\NC(=O)Cn1nc(C)c(Br)c1C)c1cccs1,1.82%
15,CCCCN(C(=O)CSCC(=O)Nc1ccc(C)cc1)c1c(N)n(Cc2ccccc2)c(=O)[nH]c1=O,14.6%
16,OC(c1nnc(-c2ccccc2)o1)c1cccs1 (stereo not shown),8.42%
17,Br.COc1ccc(C2=CSC3=NCCN23)cc1,-0.998%
18,C=C1C[C@@]23CCC4[C@@](C)(CCC[C@@]4(C)C(=O)O)C2CC[C@]1(O)C3 (stereo partly shown),11.8%
19,COc1ccc(Cl)cc1S(=O)(=O)Nc1ccncc1,9.15%
20,COc1cc(CC(=O)OCC(=O)NC2CC2)cc(OC)c1OC,17.9%
21,COc1cccc(OC)c1C(=O)Nc1cccc(-n2cnnn2)c1,10.4%
22,Cc1ccc(NC(=S)N2CCN(C3CCCCC3)CC2)cc1,-10.7%
23,CCOC(=O)C1C(c2cccc([N+](=O)[O-])c2)C2C(=O)NN=C2CC1(C)O (stereo not shown),15.3%
24,Cc1ccc(-c2csc(Nc3ccc(C(=O)O)cc3)[n+]2Cc2ccccc2)cc1.[Br-],9.84%
25,CCn1ccnc1CN1CCCC(C(=O)c2ccc3cc(OC)ccc3c2)C1 (stereo not shown),-0.928%
